The list shows a part of the results. Binding of human antibodies (heavy:light variable regions, tested as scFv in one mRNA-display pool) to influenza hemagglutinin, with or without the stem antibody CR9114 bound first. Score = (mean enrichment − median) / interquartile range of that screen; higher = more enriched, 0 = typical non-binder. Active = above the paper's cut-off per screen: stems 28; unblocked H1 Solomon Islands 5, H1 Michigan 3, H3 5, H5 19, H7 2.85, both B 5; blocked 9, 7, H5 10, H7 10, B Phuket 10, B Lee 11.5. Scores are scaled within each screen and are no affinities; replicates correlate at about 0.6 to 0.9, and antibodies rare in the pool are noisier.

Holding throughout (test): mRNA display binding score; higher = more enriched on the antigen
For experiment [1], the target named is Influenza A H1N1 A/Michigan/45/2015 hemagglutinin ectodomain. How it is done: (§1)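 A pool of natively paired antibodies, displayed as scFv on mRNA, was selected once on antigen-coated beads and sequenced before and after; two replicates.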
The target of experiment [2] is Influenza A H1N1 A/Solomon Islands/3/2006 hemagglutinin ectodomain. The protocol:
as §1

Experiment [3] concerns the target Influenza A H3N2 A/Singapore/INFIMH-16-0019/2016 hemagglutinin ectodomain. The settings on record: antigen blocked with: nothing. The protocol: as §1
Experiment [4] has as its target Influenza A H5N1 A/Qinghai/1A/2005 hemagglutinin ectodomain. How it is done: as §1
The target in experiment [5] is Influenza A H7N9 A/Shanghai/2/2013 hemagglutinin ectodomain. The protocol:
as §1

In experiment [6] the target is Influenza B/Lee/1940 hemagglutinin ectodomain. How it is done:
as §1

Experiment [7] deals with Influenza B/Phuket/3073/2013 hemagglutinin ectodomain. How it is done: as §1
The mark [8] stands for this setting: antigen blocked with: 2 µM CR9114 IgG.

B1: K77-2H08 (protein)
chain 1: QVQLQESGPGLVKPSETLSLTCSVSGNSITSGYFWGWIRQTPGKGLEFIGSISHKGEPYYNPPLKGRVAVSSDTSKNEFSLTLASVTAADTAIYYCARERGGTYGYFDHWGPGSLVTVSS
chain 2: DIQMTQSPSTLSASVGDRVTITCRASESIGAWVTWYQQKPGKAPNLLIYKASTLQTGVPSRFSGGGSGTDFTLTISSLQPDDFATYYCQQYFRDVTFGQGTKVEIK
As to B1, the “mRNA display binding score” value in experiment [1] (setting [8]) is inactive: -0.481; in experiment [1] (antigen blocked with: nothing), inactive: -0.691; in experiment [2] (setting [8]) it was inactive: -0.232; in experiment [2] (antigen blocked with: nothing) it was inactive: -0.444; in experiment [3] it was inactive: -0.53; in experiment [4] (setting [8]), inactive: -0.937. Besides, the “mRNA display binding score” value is inactive: -0.659 in experiment [4] (antigen blocked with: nothing); inactive: -0.691 in experiment [5] (setting [8]); inactive: -0.75 in experiment [5] (antigen blocked with: nothing); inactive: 0.0168 in experiment [6] (setting [8]); inactive: -0.28 in experiment [6] (antigen blocked with: nothing); inactive: -0.59 in experiment [7] (setting [8]). In addition, the “mRNA display binding score” value in experiment [7] (antigen blocked with: nothing) is inactive: -0.36.

B2: SFV009-3A02 (protein)
chain 1: EVQLLESGGGLVQPGGSLRLSCEASGFTFISYAMSWVRQAPGKGLEWVSVISGSGGARYYADSVKGRFTISRDNSKNTLYLEMNNVRAEDTAVYFCAKDRILPYDTDAFDIWGQGTMVTVSS
chain 2: DIQMTQSPSTLSASVGDRVTITCRASESVSVSLAWYQQKPGKAPKLLIYKASTLESGVPPRFSGSGSGTEFTLTISSLQPNDFATYYCQEYHTSSRVTFGPGTKVDIK
Regarding B2, the “mRNA display binding score” value in experiment [1] (setting [8]) was inactive: -0.255; in experiment [1] (antigen blocked with: nothing) it was inactive: -0.642; in experiment [2] (setting [8]), inactive: -0.343; in experiment [2] (antigen blocked with: nothing), inactive: -0.712; in experiment [3], inactive: -0.573; in experiment [4] (setting [8]), inactive: -0.572. The “mRNA display binding score” value is inactive: -0.535 in experiment [4] (antigen blocked with: nothing); inactive: -0.132 in experiment [5] (setting [8]); inactive: -0.448 in experiment [5] (antigen blocked with: nothing); inactive: 0.514 in experiment [6] (setting [8]); inactive: -0.388 in experiment [6] (antigen blocked with: nothing); inactive: -0.296 in experiment [7] (setting [8]). The “mRNA display binding score” value in experiment [7] (antigen blocked with: nothing) was inactive: -0.324.

B3: W85-1H08 (protein)
chain 1: EVQVVESGGGVVQPGRSLRLSCAASGFTFGSYAMYWVRQAPGKGLEWVAVISYDGSDKYYGDFVKGRFTISRDNSKNTLYLQMNSLRVEDTAVYYCLRGRYGDPPTDFWGQGTLVTVSS
chain 2: QSALTQPPSVSEAPRQRVTISCSGSRSNIGNNAVNWYQQLPGKAPKLLIFYDDLLSSGVSDRFSGSKSGTSASLAISGLQSEDEADYYCATWDDILNGPVFGGGTKLTV
Take B3: the “mRNA display binding score” value is inactive: -0.447 in experiment [1] (setting [8]); inactive: -0.38 in experiment [1] (antigen blocked with: nothing); inactive: -0.253 in experiment [2] (setting [8]); inactive: -0.569 in experiment [2] (antigen blocked with: nothing); inactive: -0.22 in experiment [3]; inactive: -0.86 in experiment [4] (setting [8]). For the same molecule, the “mRNA display binding score” value in experiment [4] (antigen blocked with: nothing) was inactive: -0.636; in experiment [5] (setting [8]) it was inactive: -0.685; in experiment [5] (antigen blocked with: nothing) it was inactive: -0.661; in experiment [6] (setting [8]) it was inactive: 0.149; in experiment [6] (antigen blocked with: nothing), inactive: 0.652; in experiment [7] (setting [8]), inactive: -0.692. Moreover, the “mRNA display binding score” value in experiment [7] (antigen blocked with: nothing) is inactive: -0.292.

B4: 236-14-IgG-1A06 (protein)
chain 1: QVQLQESGPGLVKPSETLSLTCTVSGGSISSSSHYCTWIRQPPGKGLEWIGGIYYTGNAYYNPSLKSRVTISVDASKNQFSLKLRSVTAADTAVFYCVGSQAIDAFDFWGQGTMVTVSS
chain 2: QSALTQPPSASGSPGQSVTISCTGTSSDVGYYNYVSWYQQHPGKAPKLMIYEVSNRPSGVPDRFSGSKSGNSASLTVSGLQAEDEADYYCSSYGGSNNVIFGGGTKLTVL
Turning to B4, the “mRNA display binding score” value in experiment [1] (setting [8]) was active: 45.3; in experiment [1] (antigen blocked with: nothing), inactive: 2.43; in experiment [2] (setting [8]), inactive: 0.386; in experiment [2] (antigen blocked with: nothing), inactive: 0.0552; in experiment [3], inactive: 0.356; in experiment [4] (setting [8]) it was inactive: 0.605. Also, the “mRNA display binding score” value was inactive: 0.314 in experiment [4] (antigen blocked with: nothing); inactive: 0.455 in experiment [5] (setting [8]); inactive: 0.179 in experiment [5] (antigen blocked with: nothing); inactive: 0.549 in experiment [6] (setting [8]); inactive: -0.122 in experiment [6] (antigen blocked with: nothing); inactive: 0.174 in experiment [7] (setting [8]). Moreover, the “mRNA display binding score” value in experiment [7] (antigen blocked with: nothing) is inactive: -0.091.

B5: C1-3E03 (protein)
chain 1: VQLVESGGGLVQPGGSLRLSCVVSGFSFSKYEMNWVRQAPGKGLEWISYISSSGETIFYADSVRGRFTTSRDNAHNSLYLQMNSLRAEDTAIYYCANMRAWFWYDPADDIGHWGQGTLVTVSS
chain 2: EIVMTQSPVTLSVFPGERATLSCRASQSVNNNLAWYQQRPGQTPKLLIYDASTRATGIPARFSGSGSGTVFTLTISSLQSEDIAVYYCQQYAGWPPWTFGQGTKVEIK
As to B5, the “mRNA display binding score” value in experiment [1] (setting [8]) was inactive: -0.352; in experiment [1] (antigen blocked with: nothing), inactive: -0.393; in experiment [2] (setting [8]) it was inactive: -0.528; in experiment [2] (antigen blocked with: nothing), inactive: -0.48; in experiment [3], inactive: -0.133; in experiment [4] (setting [8]), inactive: -0.66. The “mRNA display binding score” value in experiment [4] (antigen blocked with: nothing) was inactive: -0.446; in experiment [5] (setting [8]), inactive: -1.12; in experiment [5] (antigen blocked with: nothing), inactive: -0.355; in experiment [6] (setting [8]), inactive: -0.79; in experiment [6] (antigen blocked with: nothing) it was inactive: -0.412; in experiment [7] (setting [8]), inactive: -0.538. The “mRNA display binding score” value in experiment [7] (antigen blocked with: nothing) is inactive: -0.356.

B6: 051-10-2D06 (protein)
chain 1: EVQLVESGGGLVQPGGSLRLSCAASGFTFTRHWMSWVRQAPGKGLEWVANVKQDGSDKYYVDSVKGRFTISRDNAKNSVYLQMNSLRAEDTAVYYCARYGGSYLDYWGQGTLVTVSS
chain 2: QSALTQPASVSGSPGQSISISCTGTSSDVGNYNFVSWYQQHPGKAPKLMIYEDNKRPSGVSSRFSGSKSGNTASLTIFGLQAEDEADYYCCSYAGSSTYVFGTGTRVPVL
Consider B6, for which the “mRNA display binding score” value was inactive: 0.599 in experiment [1] (setting [8]); inactive: -0.349 in experiment [1] (antigen blocked with: nothing); inactive: 0.0606 in experiment [2] (setting [8]); inactive: -0.189 in experiment [2] (antigen blocked with: nothing); inactive: -0.0481 in experiment [3]; inactive: -0.515 in experiment [4] (setting [8]). Also, the “mRNA display binding score” value was inactive: -0.466 in experiment [4] (antigen blocked with: nothing); inactive: 1.37 in experiment [5] (setting [8]); inactive: -0.405 in experiment [5] (antigen blocked with: nothing); inactive: 0.532 in experiment [6] (setting [8]); inactive: 0.649 in experiment [6] (antigen blocked with: nothing); inactive: -0.143 in experiment [7] (setting [8]). Also, the “mRNA display binding score” value in experiment [7] (antigen blocked with: nothing) was inactive: -0.073.
